PubChem BioAssay AID938 (National Center for Advancing Translational Sciences (NCATS), 2007)
Values joined by “and” are separate entries in the source; they are usually repeats but may differ in a detail not shown here. Equal values may be shown once. Hit rate of the full screen: of about 73,000 compounds, about 1,800 (2.5%) were called active. The inconclusive results got no clear call from the source; some entries with a clear call stand among them for comparison. Calls come from the whole dose curve; as a rule, active = well fitted activation curve with a large enough effect; inconclusive = small, poorly fitted or top-dose-only effect; inactive = no such curve, though single readings can be large or run the other way. A potency beside an inconclusive call is a rough fit, not a confirmed value.

assay: qHTS Assay for Agonists of the Thyroid Stimulating Hormone Receptor: Activators of Intracellular cAMP Concentrations in Parental HEK 293; conditions: parental HEK293 CNG cAMP sensor, membrane potential fluorescence; activation: at 57.1 µM (top of the series) unless noted; note: nearly all actives have a fitted effect of over 55% in size; for activation: % of control where 0% means no effect
Procedure, shortened: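 Counterscreen for endogenous-receptor signalling: CNG-channel HEK 293 cells report cAMP rise by membrane depolarization. After 60 min dye equilibration with 100 uM RO 20-1724, compounds incubated 30 min before bottom-read fluorescence at 590 nm.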
Potency is the fitted concentration of half-maximal effect; tags give direction and shape of the fitted curve.

Row | SMILES | Potency | activation
1 | CC(C)Oc1ccc2c3c(c(=O)oc2c1)CCC3 | inconclusive: 25.1 µM [activator, partial curve] | 
2 | O=C(O)c1ccc(C(=O)Nc2cccc3ccccc23)c(C(=O)O)c1 |  | inactive: -5.74% [at 11.4 µM]
3 | Cc1cc2nc(-c3cccc(NC(=O)c4ccc(Br)o4)c3C)oc2cc1C | inconclusive: 1 µM [activator, full curve] | 
4 | O=C(O)c1cc(-c2ccco2)nc2ccccc12 | inactive | 
5 | O=C(Oc1cccc(C(=O)N2CCOCC2)c1)c1ccc(Br)cc1 | inconclusive: 6.31 µM [activator, single point] | 
6 | Cc1cccc(N2CCN(C(=O)c3ccc(N4CCCC4=O)cc3)CC2)c1C | inconclusive: 39.8 µM [activator, single point] | 
7 | CCOCCCNc1ncnc2c1[nH]c1ccccc12 | inconclusive: 6.31 µM [activator, single point] | 
8 | CCC(C)(C)NC(=O)C(OC(=O)c1ccco1)c1ccccc1OC (stereo not drawn) | inconclusive: 7.94 µM [activator, partial curve] | 
9 | COC(=O)c1nc2n(n1)C(c1ccc(OC)c(OC)c1)C(C(=O)OC1CCCCC1)=C(C)N2 (stereo not drawn) | inconclusive: 6.31 µM [activator, single point] | 
10 | Cc1nc(-c2cnn(-c3ccccc3)c2)c2cc(C)oc2n1 | inactive | 
11 | CCOc1ccc(N(CC(=O)N2CC=C(c3ccccc3)CC2)S(=O)(=O)c2c(C)noc2C)cc1 | inconclusive: 25.1 µM [activator, partial curve] | 
12 | N#Cc1cccc(NC(=O)N2CCCC3(CCN(C(=O)c4csnn4)CC3)C2)c1 | inconclusive: 3.16 µM [activator, partial curve] | 
13 | CC(=O)c1c(C)[nH]c(C(=O)CSc2nc3ccccc3c(=O)n2CCCN2CCOCC2)c1C | inactive | 
14 | Nc1ccc(Cl)cc1[N+](=O)[O-] | inactive | 
15 | Cc1ccc(-n2c(SCc3cn4ccsc4n3)nc3ccccc3c2=O)cc1 | inconclusive: 25.1 µM [activator, single point] | 
16 | CN(Cc1cccs1)C(=O)COc1ccc(-c2nnco2)cc1 | inconclusive: 6.31 µM [activator, single point] | 
17 | Cc1cc(C)c(C#N)c(SCC(=O)N(C)C2CCCCC2)n1 | inconclusive: 3.98 µM [activator, full curve] | 
18 | CCOC(=O)/C(C#N)=C1/C=C(C)NC(c2ccccc2O)=N1 | inconclusive: 2 µM [activator, partial curve] | 
19 | Cc1cccc(NC(=O)c2ccc(S(=O)(=O)N(C)C)cc2)c1 | inconclusive: 6.31 µM [activator, single point] | 
20 | O=C(CSc1nc(-c2cccs2)cc(C(F)(F)F)n1)NCc1ccco1 | inconclusive: 3.98 µM [activator, partial curve] | 
21 | CCN1CCN(S(=O)(=O)c2ccc3[nH]c(=O)oc3c2)CC1 | active: 31.6 µM | 
22 | O=C(NCc1ccccc1)c1cc(=O)nc2sc(-c3ccccc3)nn12 | inconclusive: 15.8 µM [activator, partial curve] | 
23 | CCCc1nc(SCC(=O)Nc2cc(C)on2)c2c(=O)n(C)c(=O)n(C)c2n1 | inconclusive: 6.31 µM [activator, single point] | 

Row | SMILES | Potency | activation
24 | Cc1nc(=O)cc(-c2ccccc2)n1-c1ccccc1 | inconclusive: 39.8 µM [activator, single point] | 
25 | COC(=O)CCCC(=O)OC | inconclusive: 39.8 µM [activator, single point] | 
26 | Cc1cc(C)n(-c2nc3ccccc3nc2N2CCN(S(=O)(=O)c3ccc(F)c(C)c3)CC2)n1 | inconclusive: 20 µM [activator, partial curve] | 
27 | Cc1cnc(CNc2ncncc2-c2ccccc2C)cn1 | inactive | 
28 | CC(C)C[C@@H](CC(=O)N[C@@H](CCCN)CC(=O)N[C@@H]1CCCC[C@H]1C(=O)N[C@H](CC(=O)N[C@@H](CCC(=O)O)CC(=O)O)CC(C)C)NC(=O)[C@@H]1CCCC[C@H]1N | inactive | 
29 | O=C(NC1CCCCC1)c1ccc(N2CCCC2=O)cc1 | inconclusive: 0.501 µM [activator, full curve, poor fit] | 
30 | O=C(Cn1c(=O)oc2ccccc21)Nc1ccc(S(=O)(=O)N2CCCCC2)cc1 | inactive | 
31 | N#Cc1c(-c2ccco2)cc(C2CC2)nc1SCC(=O)c1ccccc1 | inconclusive: 15.8 µM [activator, partial curve] | 
32 | Cc1ccsc1C(C(=O)NC1CCCCC1)N(C(=O)Cc1cccs1)C1CC1 (stereo not drawn) | inconclusive: 15.8 µM [activator, partial curve] | 
33 | CC(=O)c1ccc(NC(=O)C2CCCN2S(=O)(=O)c2ccc(F)cc2)cc1 (stereo not drawn) | inconclusive: 25.1 µM [activator, single point] | 
34 | O=C(c1ccncc1)N1CCC2(CCCN(Cc3ccccc3)C2)CC1 | inconclusive: 6.31 µM [activator, single point] | 
35 | CCOC(=O)c1cc2c(=O)n3cc(C)ccc3nc2n(Cc2cccnc2)c1=N | inactive | 
36 | COc1cc2[nH]c(=S)n(C3CCCC3)c(=O)c2cc1OC | inactive | 
37 | Clc1ccc(OCc2nnc(SCc3nnc(-c4ccccc4)o3)o2)c(Cl)c1 | inconclusive: 10 µM [activator, partial curve] | 
38 | COc1ccc(Cn2c3nc4ccccc4nc3c3c(=O)n(Cc4ccco4)c(C)nc32)cc1 | inconclusive: 39.8 µM [activator, single point] | 
39 | Cc1ccc2c(COn3nnc4ccc(S(=O)(=O)N(C)C)cc43)cc(=O)oc2c1C | inconclusive: 25.1 µM [activator, partial curve] | 
40 | CC(=O)N(CCCN(C)C)CCC(C)CCC=C(C)C (stereo not drawn) | inactive | 
41 | CN(CCCNC(=O)C1CCC(=O)N1Cc1ccc(F)cc1)c1ccccc1 (stereo not drawn) | inconclusive: 5.01 µM [activator, single point] | 
42 | CCOC(=O)[C@@]12C[C@@H]1/C(=N/O)c1ccccc1O2 | inconclusive: 39.8 µM [activator, single point] and inconclusive: 31.6 µM [activator, partial curve, poor fit] | 
43 | CCCCN(c1ccccc1)c1ncnc2c1cnn2C |  | inactive: 4.55% [at 11.4 µM]
44 | O=C(COC(=O)c1cccnc1)Nc1cccc(Cl)c1 | inactive | 
45 | CC(Oc1ccccc1Br)C(=O)N1CCc2ccccc21 (stereo not drawn) | inconclusive: 1 µM [activator, full curve] | 
46 | C=CCOC(=O)C1=C(C)NC(C)=C(C(=O)OCC=C)C1c1ccc(O)cc1 | inactive | 

Row | SMILES | Potency | activation
47 | C=CCOc1ccc(C2N3CC4(C)CN2CC(CCC)(C3)C4=O)cc1 (stereo not drawn) | inconclusive: 31.6 µM [activator, single point] | 
48 | O=C(O)c1ccc(NS(=O)(=O)c2cccc3ccccc23)cc1 | inconclusive: 39.8 µM [activator, single point] | 
49 | CCN(CCO)C[C@H]1CCC[C@H]2CCCC[C@@H]21 |  | inactive: 0.188% [at 11.4 µM]
50 | O=C(c1ccccc1)N1CCn2c(nc3ccccc32)C1 | inconclusive: 3.98 µM [activator, partial curve, poor fit] | 
51 | COc1ccc(Cn2nnnc2C(c2cccs2)N2CCSCC2)cc1 (stereo not drawn) | inconclusive: 31.6 µM [activator, single point] | 
52 | COc1ccc(N2CCN(S(=O)(=O)/C=C/c3ccccc3)CC2)cc1 | inactive | 
53 | COC(=O)c1sc(N)c(C(=O)OC)c1CSc1nnc(-c2ccccc2Cl)n1C | inconclusive: 3.16 µM [activator, full curve] | 
54 | C[C@]12CC[C@@H]3c4ccc(O)cc4CC[C@H]3[C@@H]1CC[C@@H]2O | inconclusive: 39.8 µM [activator, single point] | 
55 | Cc1ccc(S(=O)(=O)Cn2nnnc2C(C(C)C)N2CCN(Cc3ccco3)CC2)cc1 (stereo not drawn) | inactive | 
56 | COc1cc(-c2nnc3sc(-c4cccs4)nn23)cc(OC)c1OC | inactive | 
57 | O=C(NCc1ccc2c(c1)OCO2)C1CCN(S(=O)(=O)c2ccc(Br)s2)CC1 | inconclusive: 25.1 µM [activator, single point] | 
58 | C=CCn1cc(C(=O)NCc2ccco2)c(=O)c2cc(S(=O)(=O)N3CCCCCC3)ccc21 | inconclusive: 39.8 µM [activator, single point] | 
59 | COC(=O)c1c(NC(=O)CN2CCCC(C)C2)c2c(C)cccc2n1C (stereo not drawn) | inconclusive: 20 µM [activator, partial curve] | 
60 | CC(=O)N1CCC2(CCCN(C(=O)Nc3cccc(C#N)c3)C2)CC1 | inactive | 
61 | COc1ccccc1CCn1c(=O)c(CCc2ccccc2)nc2cncnc21 | inconclusive: 15.8 µM [activator, partial curve] | 
62 | Cc1ccccc1CSc1nnc(-c2ccco2)n1Cc1ccco1 | inconclusive: 20 µM [activator, partial curve] | 
63 | CCCCn1nc(C(=O)N2CCc3ccccc32)c2ccccc2c1=O | inconclusive: 25.1 µM [activator, single point] | 
64 | CN(C)c1nc2ccccc2c(N)c1-c1ccccc1 | inconclusive: 10 µM [activator, partial curve] | 
65 | COc1cccc(Cn2c(=O)c(-c3ccccc3)nc3cnc(N4CCNCC4)nc32)c1 | inconclusive: 3.16 µM [activator, single point] | 
66 | COc1ccc(CN/C=C2\CCCCC2=O)cc1 | inactive | 
67 | CCOC(=O)C1=C(N)N2C(=O)C(C)SC2=C(C(=O)OC)C1c1ccccc1OC (stereo not drawn) | inconclusive: 25.1 µM [activator, partial curve] | 
68 | Cc1ccc(C(=O)Nc2ccc3c(c2)OCO3)cc1S(=O)(=O)N1CCCCC1 | inconclusive: 25.1 µM [activator, single point] | 
